In patent US20250333542A1 (Hoffmann-La Roche, published 2025):
Each block holds one binder with its values, some of them ahead of it.

Columns and labels:
[1] = biological target: T1, Fc (kih)-IFNGR1/2 heterodimer (P1AF8126) (UniProt P15260 18-245; P38484 28-247, limits assumed); experiment: SPR, compound immobilised, Fc(kih)-IFNGR1/2 heterodimer as analyte; apparent affinity
T1 construct: Used as the soluble analyte in SPR; also called Fc (kih)-IFNGR1/R2 heterodimer; IFNGR1/R2; not shown: Fc (kih) chain
T1 sequence (looked up) 1: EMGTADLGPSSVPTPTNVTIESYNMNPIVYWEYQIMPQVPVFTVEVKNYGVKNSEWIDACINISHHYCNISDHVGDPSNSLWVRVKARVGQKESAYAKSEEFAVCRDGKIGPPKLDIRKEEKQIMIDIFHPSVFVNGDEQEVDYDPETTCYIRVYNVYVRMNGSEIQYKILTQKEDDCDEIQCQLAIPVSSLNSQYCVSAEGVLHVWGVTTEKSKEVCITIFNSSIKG
T1 sequence (looked up) 2: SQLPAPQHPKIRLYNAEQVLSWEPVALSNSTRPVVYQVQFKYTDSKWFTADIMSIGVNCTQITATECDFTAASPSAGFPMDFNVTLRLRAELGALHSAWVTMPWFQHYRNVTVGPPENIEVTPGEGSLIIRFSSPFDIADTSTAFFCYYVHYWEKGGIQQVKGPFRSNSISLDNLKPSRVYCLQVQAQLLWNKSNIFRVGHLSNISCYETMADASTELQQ
Procedure: (§1) The binding behaviour of IFNG variants towards IFNGR1 and IFNGR1/2 was assessed by surface plasmon resonance (SPR). SPR experiments were performed on a Biacore 8K device at 25° C. with HBS-EP as running buffer (0.01 M HEPES pH 7.4, 0.15 M NaCl, 3 mM EDTA, 0.005% Surfactant P20, Biacore, Freiburg/Germany). […] IFNG mutation series compounds were immobilised at a concentration of 25 nM, 80 s contact time and 10 μL/min. Immobilisation levels up to 450 resonance units (RU) were used. Subsequently, decreasing concentrations (800-3.13 nM) of Fc (kih)-IFNGR1 monomer or Fc (kih)-IFNGR1/2 heterodimer were injected as a second analyte with a flow rate of 30 μL/min over 120 seconds and dissociation was monitored for 500 s. Bulk refractive index differences were corrected for by subtracting the response obtained in a reference flow cell, where no protein was immobilised. The affinity constants were derived from the rate constants by fitting to a 1:1 Langmuir binding.
(§2) To measure binding affinities, compounds of the mutation series were immobilised in the flow cell. As a second analyte Fc (kih)-IFNGR1 monomer or Fc (kih)-IFNGR1/R2 heterodimer were passed through the flow cell and binding affinities (KD) were calculated based on observed association and dissociation constants. Already single point mutations reduced the apparent binding affinities towards the receptors compared to the compound with C-terminal KRKRP.

[2] = biological target: T2, Fc (kih)-IFNGR1 monomer (P1AF7104) (UniProt P15260 18-245); experiment: SPR, compound immobilised, Fc(kih)-IFNGR1 monomer as analyte; apparent affinity
T2 construct: Used as the soluble analyte in SPR; not shown: Fc (kih) part
T2 sequence (P15260 whole entry, species assumed, looked up): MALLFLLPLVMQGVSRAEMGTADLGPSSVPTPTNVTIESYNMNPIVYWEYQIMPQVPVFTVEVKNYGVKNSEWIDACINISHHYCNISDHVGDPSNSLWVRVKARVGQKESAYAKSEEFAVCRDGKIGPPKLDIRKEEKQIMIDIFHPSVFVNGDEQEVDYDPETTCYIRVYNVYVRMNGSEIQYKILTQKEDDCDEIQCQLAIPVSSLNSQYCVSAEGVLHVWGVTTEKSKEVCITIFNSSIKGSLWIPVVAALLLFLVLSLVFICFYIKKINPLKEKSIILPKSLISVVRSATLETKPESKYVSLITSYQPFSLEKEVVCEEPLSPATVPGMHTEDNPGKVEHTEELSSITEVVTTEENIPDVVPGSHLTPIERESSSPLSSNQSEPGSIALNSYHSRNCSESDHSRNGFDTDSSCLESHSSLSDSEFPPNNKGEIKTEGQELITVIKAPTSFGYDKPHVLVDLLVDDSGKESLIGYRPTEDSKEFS
Procedure: as §1, §2

Kd [1]: 598 nM
Kd [2]: 1370 nM
B1: P1AF9486 (anti-FAP 4B9 IgG-IFNG, C-terminus AKTGKRKEP) (other)
heavy: EVQLLESGGGLVQPGGSLRLSCAASGFTFSSYAMSWVRQAPGKGLEWVSAIIGSGASTYYADSVKGRFTISRDNSKNTLYLQMNSLRAEDTAVYYCAKGWFGGFNYWGQGTLVTVSSASTKGPSVFPLAPSSKSTSGGTAALGCLVKDYFPEPVTVSWNSGALTSGVHTFPAVLQSSGLYSLSSVVTVPSSSLGTQTYICNVNHKPSNTKVDKKV[human IgG1 Fc with changes skipped]GGGGSGGGGSGGGGSQDPYVKEAENLKKYFNAGHSDVADNGTLFLGILKNWKEESDRKIMQSQIVSFYFKLFKNFKDDQSIQKSVETIKEDMNVKFFNSNKKKRDDFEKLTNYSVTDLNVQRKAIHELIQVMAELSPAAKTGKRKEP
light: EIVLTQSPGTLSLSPGERATLSCRASQSVTSSYLAWYQQKPGQAPRLLINVGSRRATGIPDRFSGSGSGTDFTLTISRLEPEDFAVYYCQQGIMLPPTFGQGTKVEIKRTVAAPSVFIFPPSDEQLKSGTASVVCLLNNFYPREAKVQWKVDNALQSGNSQESVTEQDSKDSTYSLSSTLTLSKADYEKHKVYACEVTHQGLSSPVTKSFNRGEC
notes: Antibody-cytokine fusion, IgG1 P329G LALA, (G4S)3 linker; E in position 4 of KRKR

Kd [1]: 4750 nM
Kd [2]: 216000 nM
B2: P1AF9490 (anti-FAP 4B9 IgG-IFNG, C-terminus AKTGKEKEP) (other)
heavy: EVQLLESGGGLVQPGGSLRLSCAASGFTFSSYAMSWVRQAPGKGLEWVSAIIGSGASTYYADSVKGRFTISRDNSKNTLYLQMNSLRAEDTAVYYCAKGWFGGFNYWGQGTLVTVSSASTKGPSVFPLAPSSKSTSGGTAALGCLVKDYFPEPVTVSWNSGALTSGVHTFPAVLQSSGLYSLSSVVTVPSSSLGTQTYICNVNHKPSNTKVDKKV[human IgG1 Fc with changes skipped]GGGGSGGGGSGGGGSQDPYVKEAENLKKYFNAGHSDVADNGTLFLGILKNWKEESDRKIMQSQIVSFYFKLFKNFKDDQSIQKSVETIKEDMNVKFFNSNKKKRDDFEKLTNYSVTDLNVQRKAIHELIQVMAELSPAAKTGKEKEP
light: B1 light
notes: Antibody-cytokine fusion, IgG1 P329G LALA, (G4S)3 linker; E in positions 2 and 4 of KRKR

Kd [1]: 950 nM
Kd [2]: 2710 nM
B3: P1AF9482 (anti-FAP 4B9 IgG-IFNG, C-terminus AKTGKPKPP) (other)
heavy: EVQLLESGGGLVQPGGSLRLSCAASGFTFSSYAMSWVRQAPGKGLEWVSAIIGSGASTYYADSVKGRFTISRDNSKNTLYLQMNSLRAEDTAVYYCAKGWFGGFNYWGQGTLVTVSSASTKGPSVFPLAPSSKSTSGGTAALGCLVKDYFPEPVTVSWNSGALTSGVHTFPAVLQSSGLYSLSSVVTVPSSSLGTQTYICNVNHKPSNTKVDKKV[human IgG1 Fc with changes skipped]GGGGSGGGGSGGGGSQDPYVKEAENLKKYFNAGHSDVADNGTLFLGILKNWKEESDRKIMQSQIVSFYFKLFKNFKDDQSIQKSVETIKEDMNVKFFNSNKKKRDDFEKLTNYSVTDLNVQRKAIHELIQVMAELSPAAKTGKPKPP
light: B1 light
notes: Antibody-cytokine fusion, IgG1 P329G LALA, (G4S)3 linker; P in positions 2 and 4 of KRKR

Kd [1]: 456 nM
Kd [2]: 1020 nM
B4: P1AF9476 (anti-FAP 4B9 IgG-IFNG, C-terminus AKTGKPKRP) (other)
heavy: EVQLLESGGGLVQPGGSLRLSCAASGFTFSSYAMSWVRQAPGKGLEWVSAIIGSGASTYYADSVKGRFTISRDNSKNTLYLQMNSLRAEDTAVYYCAKGWFGGFNYWGQGTLVTVSSASTKGPSVFPLAPSSKSTSGGTAALGCLVKDYFPEPVTVSWNSGALTSGVHTFPAVLQSSGLYSLSSVVTVPSSSLGTQTYICNVNHKPSNTKVDKKV[human IgG1 Fc with changes skipped]GGGGSGGGGSGGGGSQDPYVKEAENLKKYFNAGHSDVADNGTLFLGILKNWKEESDRKIMQSQIVSFYFKLFKNFKDDQSIQKSVETIKEDMNVKFFNSNKKKRDDFEKLTNYSVTDLNVQRKAIHELIQVMAELSPAAKTGKPKRP
light: B1 light
notes: Antibody-cytokine fusion, IgG1 P329G LALA, (G4S)3 linker; P in position 2 of KRKR

Kd [1]: 652 nM
Kd [2]: 708 nM
B5: P1AF9469 (anti-FAP 4B9 IgG-IFNG, C-terminus AKTGKSKRP) (other)
heavy: EVQLLESGGGLVQPGGSLRLSCAASGFTFSSYAMSWVRQAPGKGLEWVSAIIGSGASTYYADSVKGRFTISRDNSKNTLYLQMNSLRAEDTAVYYCAKGWFGGFNYWGQGTLVTVSSASTKGPSVFPLAPSSKSTSGGTAALGCLVKDYFPEPVTVSWNSGALTSGVHTFPAVLQSSGLYSLSSVVTVPSSSLGTQTYICNVNHKPSNTKVDKKV[human IgG1 Fc with changes skipped]GGGGSGGGGSGGGGSQDPYVKEAENLKKYFNAGHSDVADNGTLFLGILKNWKEESDRKIMQSQIVSFYFKLFKNFKDDQSIQKSVETIKEDMNVKFFNSNKKKRDDFEKLTNYSVTDLNVQRKAIHELIQVMAELSPAAKTGKSKRP
light: B1 light
notes: Antibody-cytokine fusion, IgG1 P329G LALA, (G4S)3 linker; S in position 2 of KRKR

Kd [1]: 608 nM
Kd [2]: 1200 nM
B6: P1AF9485 (anti-FAP 4B9 IgG-IFNG, C-terminus AKTGKRERP) (other)
heavy: EVQLLESGGGLVQPGGSLRLSCAASGFTFSSYAMSWVRQAPGKGLEWVSAIIGSGASTYYADSVKGRFTISRDNSKNTLYLQMNSLRAEDTAVYYCAKGWFGGFNYWGQGTLVTVSSASTKGPSVFPLAPSSKSTSGGTAALGCLVKDYFPEPVTVSWNSGALTSGVHTFPAVLQSSGLYSLSSVVTVPSSSLGTQTYICNVNHKPSNTKVDKKV[human IgG1 Fc with changes skipped]GGGGSGGGGSGGGGSQDPYVKEAENLKKYFNAGHSDVADNGTLFLGILKNWKEESDRKIMQSQIVSFYFKLFKNFKDDQSIQKSVETIKEDMNVKFFNSNKKKRDDFEKLTNYSVTDLNVQRKAIHELIQVMAELSPAAKTGKRERP
light: B1 light
notes: Antibody-cytokine fusion, IgG1 P329G LALA, (G4S)3 linker; E in position 3 of KRKR
